According to PubChem BioAssay (NCATS):
This list was built around the results that the source calls inconclusive (neither active nor inactive); the mix of calls is not that of the screen. Potencies of inconclusive entries are left out as doubtful fits. Active and inactive are the calls of the source. Calls come from the whole dose curve; as a rule, active = well fitted inhibition curve with a large enough effect; inconclusive = small, poorly fitted or top-dose-only effect; inactive = no such curve, though single readings can be large or run the other way.

Assay: qHTS Screen of the MIPE 4.0 Collection Against Ewings Sarcoma (TC71) (AID 1259253); note: nearly all actives have a fitted effect of over 40% in size;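 for viability (% of DMSO): 100% = DMSO-treated cells and 0% = medium-only wells without cells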
Conditions: TC71 Ewing sarcoma viability, CellTiter-Glo, 48 h; series mostly up to 45.8 µM; viability (% of DMSO): at the top concentration
Summary of the method: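 Dose series incubated 48 h with cells in RPMI plus 5% FBS, glutamine and penicillin/streptomycin; cell viability then quantified via CellTiter-Glo.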
Potency is the fitted concentration of half-maximal effect; tags give direction and shape of the fitted curve.

SMILES | Potency | viability (% of DMSO)
CN(C)c1ccc(C2Nc3ccc4ccccc4c3C3=C2C(=O)CC(C)(C)C3)cc1Br (configuration not stated) | inconclusive [inhibitor, single point] | –
COc1cccc([C@@H](C)NCCCc2ccccc2Cl)c1 | inconclusive [inhibitor, single point] | –
CN1CCN(Cc2ccc(NC(=O)Nc3ccc(Oc4cc(NC(=O)C5CC5)ncn4)cc3)cc2C(F)(F)F)CC1 | active: 0.132 µM | –
CC(=O)OCC(=O)[C@@]12N=C(C)O[C@H]1C[C@H]1[C@@H]3CCC4=CC(=O)C=C[C@]4(C)[C@@H]3[C@@H](O)C[C@@]12C | – | inactive: 107%
Nc1nc2c(ncn2COCCO)c(=O)[nH]1 | – | inactive: 125%
CNCCCC12CCC(c3ccccc31)c1ccccc12 | inconclusive [inhibitor, partial curve] | –
O=C(NC(Cc1cc(=O)[nH]c2ccccc12)C(=O)O)c1ccc(Cl)cc1 (configuration not stated) | inconclusive [inhibitor, single point] | –
CN(C)CCc1c[nH]c2ccc(Cn3cncn3)cc12 | – | inactive: 102%
CC(=O)OC1C(C)OC(Oc2c(-c3ccc(O)cc3)oc3cc(O)cc(O)c3c2=O)C(O)C1OC(C)=O (configuration not stated) | inconclusive [inhibitor, single point] | –
c1ccc2c(Oc3nc(Nc4ccc(N5CCOCC5)cc4)c4ncn(C5CCCCC5)c4n3)cccc2c1 | – | inactive: 128%
Cc1ccc(-n2[nH]c(C)c(N=Nc3cccc(-c4cccc(C(=O)O)c4)c3O)c2=O)cc1C | active: 11.8 µM | –
CCC(C)n1ncn(-c2ccc(N3CCN(c4ccc(OC[C@H]5CO[C@](Cn6cncn6)(c6ccc(Cl)cc6Cl)O5)cc4)CC3)cc2)c1=O (some centres not stated) | – | inactive: 116%
CCCCC(C=O)NC(=O)C(CC(C)C)NC(=O)OCc1ccccc1 (configuration not stated) | – | inactive: 91%
O=c1[nH]c(=O)n(C2CCCO2)cc1F (configuration not stated) | – | inactive: 117% [at 92.2 µM]
CCn1cc(C(=O)O)c(=O)c2cc(F)c(N3CCNCC3)nc21 | – | inactive: 120%
O=C(N[C@H](CO)[C@H](O)c1ccc([N+](=O)[O-])cc1)C(Cl)Cl | – | inactive: 131%
COc1cc(C(=O)NC2CCN(C)CC2)ccc1Nc1ncc2c(n1)N(C1CCCC1)CCC(=O)N2C(C)C | active: 2.09 µM | –
CN[C@@H](C)C(=O)N[C@H]1CCCC[C@H]2CC[C@@H](C(=O)N[C@@H](c3ccccc3)c3cn(CCCCc4ccc(CCCCn5cc([C@@H](NC(=O)[C@@H]6CC[C@@H]7CCCC[C@H](NC(=O)[C@H](C)NC)C(=O)N76)c6ccccc6)nn5)cc4)nn3)N2C1=O | inconclusive [inhibitor, single point] | –
CN1CCN(c2cccc(Nc3nc4c(-c5ccc(S(C)(=O)=O)cc5)cccn4n3)c2)CC1 | inconclusive [inhibitor, full curve] | –
CNC(=O)c1cc(Oc2ccc(NC(=O)Nc3ccc(Cl)c(C(F)(F)F)c3)c(F)c2)ccn1 | active: 20.9 µM | –
C[C@@]1(C(=O)Nc2ccc(F)nc2)CCCN1c1nc(Nc2cc(C3CC3)[nH]n2)c2cccn2n1 | inconclusive [inhibitor, full curve] | –
Cc1nccn1CC1CCc2c(c3ccccc3n2C)C1=O (configuration not stated) | active: 16.6 µM | –
